# Data taken from PubChem BioAssay AID686978 (National Center for Advancing Translational Sciences (NCATS), 2013).
# In all, about 420,000 compounds went through this assay and about 64,000 (15%) were called active. Inconclusive results, whose numbers are uncertain, are shown with a selection of clear calls. The call rests on the fitted dose curve; in most records, active means well fitted inhibition curve with a large enough effect; inconclusive means small, poorly fitted or top-dose-only effect; inactive means flat fitted curve, though single readings scatter. No potency is given beside an inconclusive call; the fits are too rough.
# Assay: qHTS for Inhibitors of human tyrosyl-DNA phosphodiesterase 1 (TDP1): qHTS in cells in absence of CPT; further: nearly all actives have a fitted effect of over 55% in size
# Conditions: DT40 Tdp1-/- hTDP1 cells, no CPT, ATP luminescence, 48 h; activity change, negative = growth inhibition: at 46.2 µM (top of the series)
# Summary of the method: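 Compound effects on proliferation are scored in DT40 Tdp1-/-;hTDP1 cells in the absence of CPT. ATP levels (CellTiter-Glo luminescence) are recorded after a ≥48 hr, 37 °C incubation.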
# On the % scale 0 is the no-effect control and ±100 the full control effect; potency means the concentration at half of the fitted maximal effect; tags describe the fitted curve by direction and shape.
SMILES,Potency,"activity change, negative = growth inhibition"
Cc1ccccc1C(=O)Nc1ccc(Br)c(C)n1,active: 9.2 µM,
CCN(CC)S(=O)(=O)c1ccc2c(c1)N(CC(=O)NCCCN1CCN(c3ccc(OC)cc3)CC1)C(=O)CO2,"inconclusive [inhibitor, single point]",
CCCS(=O)(=O)N1CCC(n2c(C)nc3cccnc32)CC1,active: 18.4 µM,
Cc1cccc(-c2noc(CN(C(=O)/C=C/c3ccccc3Cl)C(C)C)n2)c1,"inconclusive [inhibitor, single point]",
Cc1nn(-c2ccc(F)cc2)c(C)c1CN1CCN(Cc2ccccc2)C(CCO)C1 (configuration not stated),"inconclusive [inhibitor, single point]",
Cc1cc(N)nc2nc(C(F)(F)F)nn12,,inactive: -8.95%
Cc1nn2c(-c3ccc(Cl)cc3)ccnc2c1-c1ccccc1,"inconclusive [inhibitor, full curve]",
C[C@@H]1CN(Cc2ccc3c(c2)CN(Cc2cccc4cccnc24)CCO3)C[C@H](C)O1,"inconclusive [inhibitor, single point]",
O=C(Cn1c(=O)[nH]c2ccccc2c1=O)N1CCN(c2cccc(Cl)c2)CC1,,inactive: -10.9%
CC(=O)c1ccc(N2CCN(CC(O)c3ccccc3)CC2)cc1 (configuration not stated),,inactive: -1.93%
O=C(c1ccoc1)N1CCN(c2cc(-c3cccc(F)c3)nc3cc(-c4cccc(Cl)c4)nn23)CC1,active: 4.61 µM,
Cc1nn(-c2ccccn2)c2nc(-c3cccs3)cc(C(=O)N3CCOCC3)c12,"inconclusive [inhibitor, single point]",
CCc1ccc(/C=C\C(=O)N2CCc3ccccc3C2)cc1,,inactive: 2.13%
CCSc1nnc(NC(=O)C(C(F)(F)F)C(F)(F)F)s1,"inconclusive [inhibitor, single point]",
CCOC(=O)c1nn(-c2ccc(F)cc2)c(=O)cc1OCC(=O)N1CCN(c2ccccc2)CC1,"inconclusive [inhibitor, partial curve, poor fit]",
CC1=CC2=NC(=O)/C(=C\c3cc(C)n(-c4ccccc4F)c3C)C(=N)N2O1,active: 29.1 µM,
OC[C@@H]1CN(Cc2ccc(F)cc2)C[C@H](n2cnc3c(Nc4ccccc4)ncnc32)O1,"inconclusive [inhibitor, partial curve, poor fit]",
CCc1ccc(C(=O)c2cn(CC(=O)Nc3cc(OC)ccc3OC)c3ccc(Cl)cc3c2=O)cc1,"inconclusive [inhibitor, single point]",
Cc1cc(C(=O)N2CCC2(C)C(=O)NS(=O)(=O)c2cccc(Cl)c2)nn1C (configuration not stated),,inconclusive: -32.3% [inhibitor]
CC(=O)N1CCc2c(sc3c2c(=O)n(-c2ccccc2Cl)c(=O)n3Cc2cccc(C)c2)C1,"inconclusive [inhibitor, single point]",
C/C(=N\N=C1\NC(=O)C(CC(=O)Nc2ccc(C)c(Cl)c2)S1)C(C)(C)C (configuration not stated),,inactive: 8.15%

SMILES,Potency,"activity change, negative = growth inhibition"
COc1ccccc1NC(=O)CSc1cn(CC(=O)N2CCCC2)c2ccccc12,"inconclusive [inhibitor, single point]",
OCCN(Cc1nc(-c2ccc3c(c2)OCO3)no1)Cc1cccs1,"inconclusive [inhibitor, partial curve]",
COc1ccccc1Cc1c(-c2ccc(OC)c(OC)c2)nc2c(C)cc(Br)cn12,"inconclusive [inhibitor, single point]",
O=C(O)c1ccc(N2C(=O)CC(SC(=NCc3ccc4c(c3)OCO4)Nc3ccc(F)cc3)C2=O)cc1 (configuration not stated),"inconclusive [inhibitor, single point]",
CCOC(=O)C1=CN(Cc2ccco2)S(=O)(=O)N(CC)C1c1ccccc1 (configuration not stated),,inactive: -22.3%
COc1ccc(-c2nnc(NC(=O)c3ccc(S(=O)(=O)N(C)CC4CCCO4)cc3)o2)c(OC)c1 (configuration not stated),"inconclusive [inhibitor, single point]",
CC(C)[C@H](NC(N)=O)C(=O)Nc1cccc(S(=O)(=O)NC2=NCCCCC2)c1,,inactive: 4.55%
O=C(c1ccco1)N1CCN(C2CC(=O)N(c3ccc(F)c(Cl)c3)C2=O)CC1 (configuration not stated),"inconclusive [inhibitor, single point]",
Fc1ccc(-c2nc3ccc(Cl)cn3c2Cc2ccsc2)cc1,,inactive: -16.7%
CCOC(=O)c1ccc(NC(=O)N2CC3CCCN3c3ccccc32)cc1 (configuration not stated),"inconclusive [inhibitor, partial curve, poor fit]",
COc1ccc(-c2cc(=O)c3c(OC(C)=O)cc(OC(C)=O)cc3o2)cc1,"inconclusive [inhibitor, single point]",
O=C(NCc1cccnc1)c1cc(C2CCCCN2C(=O)CCc2ccccc2)on1 (configuration not stated),"inconclusive [inhibitor, single point]",
CC(=O)Nc1ccc(OC(=O)c2ccc(Cl)cc2)cc1,,inactive: -4.79%
COc1ccc2nc(NC(=O)C3CCCN(S(=O)(=O)c4cccc5nonc45)C3)sc2c1 (configuration not stated),"inconclusive [inhibitor, single point]",
COc1ccc(S(=O)(=O)N2CCC(Cc3ccccc3)CC2)cc1C(N)=O,,inconclusive: -35% [inhibitor]
CC(C)N(C(=O)COC(=O)c1ccc(Cl)s1)c1ccccc1,,inactive: -1.99%
COc1ccc(OC)c(-n2c(=S)[nH]c3c(sc(=S)n3-c3ccccc3)c2=O)c1,"inconclusive [inhibitor, partial curve, poor fit]",
Clc1ccc(Nc2c3c(nc4ncnn24)CCC3)cc1,"inconclusive [inhibitor, partial curve]",
CCC1CCCCN1C(=O)CSc1nnc(-c2ccc(OC)c(OC)c2)o1 (configuration not stated),"inconclusive [inhibitor, single point]",
O=C(Nc1ccc(S(=O)(=O)N2CCCCCC2)cc1)c1ccc(Br)o1,"inconclusive [inhibitor, single point]",
CN(Cc1ccco1)c1ncnc2ccc(-c3ccccc3C#N)cc12,"inconclusive [inhibitor, single point]",
